The target in assay [1] is T1, Cwc21-13myc (yeast (Saccharomyces cerevisiae)) (UniProt Q03375).
T1 sequence: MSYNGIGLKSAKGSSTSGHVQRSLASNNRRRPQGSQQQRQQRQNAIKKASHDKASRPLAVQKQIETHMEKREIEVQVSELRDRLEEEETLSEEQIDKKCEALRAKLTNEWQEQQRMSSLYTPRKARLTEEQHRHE
The assay is described as follows: co-IP; Cwc21-13myc immunoprecipitated with anti-myc antibody (9E11) from yeast whole cell extract with GDP, GMPPNP or no nucleotide added; blots with anti-Prp8 and anti-Snu114.

Chains of the proteins cited; added tags and fusions are not shown.
UniProt P62139: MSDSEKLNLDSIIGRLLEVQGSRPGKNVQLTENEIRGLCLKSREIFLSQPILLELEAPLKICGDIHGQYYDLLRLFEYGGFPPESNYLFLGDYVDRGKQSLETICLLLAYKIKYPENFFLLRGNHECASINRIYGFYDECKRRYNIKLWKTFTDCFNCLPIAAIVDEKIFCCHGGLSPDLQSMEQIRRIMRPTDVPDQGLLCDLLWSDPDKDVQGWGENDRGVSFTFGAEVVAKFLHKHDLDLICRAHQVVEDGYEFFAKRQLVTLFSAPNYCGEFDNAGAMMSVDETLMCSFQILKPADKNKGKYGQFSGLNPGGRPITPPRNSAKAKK
UniProt P32598: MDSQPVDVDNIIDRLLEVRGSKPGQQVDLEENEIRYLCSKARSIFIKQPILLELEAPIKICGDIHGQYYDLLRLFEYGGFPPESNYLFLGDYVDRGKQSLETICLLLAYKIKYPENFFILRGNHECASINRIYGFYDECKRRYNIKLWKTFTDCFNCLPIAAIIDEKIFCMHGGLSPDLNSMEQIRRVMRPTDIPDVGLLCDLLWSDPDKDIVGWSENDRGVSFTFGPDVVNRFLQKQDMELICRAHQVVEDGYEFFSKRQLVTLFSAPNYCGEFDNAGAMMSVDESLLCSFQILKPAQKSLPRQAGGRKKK
UniProt P33334: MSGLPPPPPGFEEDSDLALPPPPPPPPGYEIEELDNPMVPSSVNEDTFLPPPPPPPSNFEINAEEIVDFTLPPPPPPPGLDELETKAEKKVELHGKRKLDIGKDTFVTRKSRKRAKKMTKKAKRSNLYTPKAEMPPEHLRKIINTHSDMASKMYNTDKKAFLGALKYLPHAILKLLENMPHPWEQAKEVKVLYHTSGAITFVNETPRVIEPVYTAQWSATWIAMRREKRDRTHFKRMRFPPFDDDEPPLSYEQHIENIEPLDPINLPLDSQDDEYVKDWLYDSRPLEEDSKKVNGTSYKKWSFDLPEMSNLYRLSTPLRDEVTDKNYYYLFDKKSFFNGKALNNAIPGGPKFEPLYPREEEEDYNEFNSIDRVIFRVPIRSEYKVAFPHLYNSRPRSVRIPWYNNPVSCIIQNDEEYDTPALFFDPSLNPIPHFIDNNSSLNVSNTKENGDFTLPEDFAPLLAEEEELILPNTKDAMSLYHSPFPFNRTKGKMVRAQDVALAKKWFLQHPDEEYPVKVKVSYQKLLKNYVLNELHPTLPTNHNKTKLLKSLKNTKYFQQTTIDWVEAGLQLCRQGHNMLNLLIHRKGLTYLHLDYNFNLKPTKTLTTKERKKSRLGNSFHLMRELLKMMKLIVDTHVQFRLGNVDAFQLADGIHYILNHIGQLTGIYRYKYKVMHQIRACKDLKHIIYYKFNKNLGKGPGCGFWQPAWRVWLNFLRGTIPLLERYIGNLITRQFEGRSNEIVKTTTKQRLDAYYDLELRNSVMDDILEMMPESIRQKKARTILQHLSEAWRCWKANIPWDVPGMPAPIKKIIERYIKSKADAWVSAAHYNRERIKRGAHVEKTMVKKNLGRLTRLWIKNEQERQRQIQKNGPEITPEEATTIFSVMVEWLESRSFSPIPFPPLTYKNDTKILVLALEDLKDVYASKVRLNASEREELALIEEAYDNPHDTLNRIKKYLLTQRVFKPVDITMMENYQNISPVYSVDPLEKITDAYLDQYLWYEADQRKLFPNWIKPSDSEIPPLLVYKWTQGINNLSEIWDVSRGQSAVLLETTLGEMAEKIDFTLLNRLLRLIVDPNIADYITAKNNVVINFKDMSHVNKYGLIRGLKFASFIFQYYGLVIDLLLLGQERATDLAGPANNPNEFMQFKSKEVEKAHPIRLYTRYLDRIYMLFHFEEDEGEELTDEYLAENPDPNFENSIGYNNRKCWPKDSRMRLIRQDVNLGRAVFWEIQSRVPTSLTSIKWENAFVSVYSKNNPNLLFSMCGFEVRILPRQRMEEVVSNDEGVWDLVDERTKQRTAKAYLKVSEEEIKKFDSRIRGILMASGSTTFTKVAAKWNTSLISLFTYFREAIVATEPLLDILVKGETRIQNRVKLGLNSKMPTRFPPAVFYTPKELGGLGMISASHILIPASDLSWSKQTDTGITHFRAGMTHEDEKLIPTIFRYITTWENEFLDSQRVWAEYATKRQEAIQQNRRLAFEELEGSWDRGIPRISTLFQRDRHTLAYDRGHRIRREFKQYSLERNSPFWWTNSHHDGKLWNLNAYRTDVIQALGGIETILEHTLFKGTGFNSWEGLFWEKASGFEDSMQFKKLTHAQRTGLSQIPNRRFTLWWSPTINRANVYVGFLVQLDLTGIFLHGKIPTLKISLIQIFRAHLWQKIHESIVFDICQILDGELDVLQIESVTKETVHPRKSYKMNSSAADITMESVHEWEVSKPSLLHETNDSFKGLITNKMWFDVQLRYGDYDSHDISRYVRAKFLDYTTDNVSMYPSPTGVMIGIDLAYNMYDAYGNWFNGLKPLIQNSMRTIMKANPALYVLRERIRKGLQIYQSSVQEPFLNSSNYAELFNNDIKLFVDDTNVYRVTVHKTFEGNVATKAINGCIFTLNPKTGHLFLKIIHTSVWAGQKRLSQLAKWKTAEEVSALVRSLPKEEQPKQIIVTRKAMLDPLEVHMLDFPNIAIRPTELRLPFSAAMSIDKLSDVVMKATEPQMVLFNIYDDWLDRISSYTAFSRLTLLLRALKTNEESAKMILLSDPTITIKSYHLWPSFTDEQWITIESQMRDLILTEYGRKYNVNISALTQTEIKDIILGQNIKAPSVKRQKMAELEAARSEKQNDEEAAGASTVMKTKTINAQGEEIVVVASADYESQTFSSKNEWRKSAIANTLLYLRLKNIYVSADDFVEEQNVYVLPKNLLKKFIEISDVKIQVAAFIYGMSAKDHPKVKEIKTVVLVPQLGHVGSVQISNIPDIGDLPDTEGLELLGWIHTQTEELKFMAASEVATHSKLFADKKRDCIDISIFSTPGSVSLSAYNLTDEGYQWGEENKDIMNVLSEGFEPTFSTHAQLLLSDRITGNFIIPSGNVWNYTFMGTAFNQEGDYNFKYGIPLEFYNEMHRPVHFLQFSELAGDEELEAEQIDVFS

Assay [2] addresses GST-PP1 (rabbit PP1 catalytic subunit, full length) (rabbit) (UniProt P62139). The assay is described as follows: pull-down; GST-tagged protein on glutathione beads, MBP-tagged Snu114 detected with anti-MBP HRP; 15 pmol of each protein, IP150 (6 mM HEPES pH 7.9, 150 mM NaCl, 5 mM MgCl2), 4°C; both purified.
The target of assay [3] is T2, GST-Cwc21 (yeast (Saccharomyces cerevisiae)) (UniProt Q03375).
T2 sequence: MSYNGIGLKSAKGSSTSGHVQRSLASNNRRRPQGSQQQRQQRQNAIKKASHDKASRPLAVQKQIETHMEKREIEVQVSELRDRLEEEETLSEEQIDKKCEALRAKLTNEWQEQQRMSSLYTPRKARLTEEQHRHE
The assay is described as above.

In assay [4] the target is Glc7, the yeast PP1c protein, fused to the Gal4-activating domain (Saccharomyces cerevisiae) (UniProt P32598). The assay is described as follows: two-hybrid; LexA DNA binding domain fusion (pBTM116) and Gal4-activating domain fusion (pACT2) in yeast L40∆G, LexAop-HIS3 reporter, -L-W-H plates with 40 mM 3AT.

Results are given in words; binding and its absence hold for the method and conditions named. For some of these results: Binding seen in cells or lysates may run through a third protein. Some entries that bind do so weakly or less than the wild type. Where a sequence is shown, tags or fusion partners need not be part of it.

As for “Prp8 (in yeast whole cell extract) (from UniProt P33334 1-2413)”, the binding result in assay [1] was “binds”.

B1: MBP-hSnu114-787/9A-ΔN (human Snu114 130-972 with V787A and F789A) (domain or fragment, UniProt Q15029 130-972)
chain: RNVTLCGHLHHGKTCFVDCLIEQTHPEIRKRYDQDLCYTDILFTEQERGVGIKSTPVTVVLPDTKGKSYLFNIMDTPGHVNFSDEVTAGLRISDGVVLFIDAAEGVMLNTERLIKHAVQERLAVTVCINKIDRLILELKLPPTDAYYKLRHIVDEVNGLISMYSTDENLILSPLLGNVCFSSSQYSICFTLGSFAKIYADTFGDINYQEFAKRLWGDIYFNPKTRKFTKKAPTSSSQRSFVEFILEPLYKILAQVVGDVDTSLPRTLDELGIHLTKEELKLNIRPLLRLVCKKFFGEFTGFVDMCVQHIPSPKVGAKPKIEHTYTGGVDSDLGEAMSDCDPDGPLMCHTTKMYSTDDGVQFHAFGRVLSGTIHAGQPVKVLGENYTLEDEEDSQICTVGRLWISVARYHIEVNRVPAGNWVLIEGVDQPIVKTATITEPRGNEEAQIFRPLKFNTTSVIKIAVEPVNPSELPKMLDGLRKVNKSYPSLTTKVEESGEHVILGTGELYLDCVMHDLRKMYSEIDIKVADPVVTFCETVVETSSLKCFAETPNKKNKITMIAEPLEKGLAEDIENEVVQITWNRKKLGEFFQTKYDWDLLAARSIWAFGPDATGPNILVDDTLPSEVDKALLGSVKDSIVQGFQWGTREGPLCDELIRNAKAKILDAVVAQEPLHRGGGQIIPTARRVVYSAFLMATPRLMEPYYFVEVQAPADCVSAVYTVLARRRGHVTQDAPIPGSPLYTIKAFIPAIDSFGFETDLRTHTQGQAFSLSVFHHWQIVPGDPLDKSIVIRPLEPQPAPHLAREFMIKTRRRKGLSEDVSISKFFDDPMLLELAKQDVVLNYPM
Turning to B1, the binding result in assay [2] is reported as “no binding (tested: 15 pmol of each protein)”.

B2: MBP-ySnu114-ΔN (yeast Snu114, 134-1008aa) (domain or fragment, UniProt P36048 134-1008)
chain: INVGVIGPLHSGKTSLMDLLVIDSHKRIPDMSKNVELGWKPLRYLDNLKQEIDRGLSIKLNGSTLLCTDLESKSRMINFLDAPGHVNFMDETAVALAASDLVLIVIDVVEGVTFVVEQLIKQSIKNNVAMCFVINKLDRLILDLKLPPMDAYLKLNHIIANINSFTKGNVFSPIDNNIIFASTKLGFTFTIKEFVSYYYAHSIPSSKIDDFTTRLWGSVYYHKGNFRTKPFENVEKYPTFVEFILIPLYKIFSYALSMEKDKLKNLLRSNFRVNLSQEALQYDPQPFLKHVLQLIFRQQTGLVDAITRCYQPFELFDNKTAHLSIPGKSTPEGTLWAHVLKTVDYGGAEWSLVRIYSGLLKRGDTVRILDTSQSESRQKRQLHDISKTETSNEDEDEDDETPSCEVEEIGLLGGRYVYPVHEAHKGQIVLIKGISSAYIKSATLYSVKSKEDMKQLKFFKPLDYITEAVFKIVLQPLLPRELPKLLDALNKISKYYPGVIIKVEESGEHVILGNGELYMDCLLYDLRASYAKIEIKISDPLTVFSESCSNESFASIPVSNSISRLGEENLPGLSISVAAEPMDSKMIQDLSRNTLGKGQNCLDIDGIMDNPRKLSKILRTEYGWDSLASRNVWSFYNGNVLINDTLPDEISPELLSKYKEQIIQGFYWAVKEGPLAEEPIYGVQYKLLSISVPSDVNIDVMKSQIIPLMKKACYVGLLTAIPILLEPIYEVDITVHAPLLPIVEELMKKRRGSRIYKTIKVAGTPLLEVRGQVPVIESAGFETDLRLSTNGLGMCQLYFWHKIWRKVPGDVLDKDAFIPKLKPAPINSLSRDFVMKTRRRKGISTGGFMSNDGPTLEKYISAELYAQLRENGLVP
For the molecule B2, the binding result in assay [3] was “binds”.

B3: MBP-ySnu114-814/6/8-A-ΔN (yeast Snu114 134-1008 with three Alanine substitutions in YGVQYK) (domain or fragment, UniProt P36048 134-1008)
chain: INVGVIGPLHSGKTSLMDLLVIDSHKRIPDMSKNVELGWKPLRYLDNLKQEIDRGLSIKLNGSTLLCTDLESKSRMINFLDAPGHVNFMDETAVALAASDLVLIVIDVVEGVTFVVEQLIKQSIKNNVAMCFVINKLDRLILDLKLPPMDAYLKLNHIIANINSFTKGNVFSPIDNNIIFASTKLGFTFTIKEFVSYYYAHSIPSSKIDDFTTRLWGSVYYHKGNFRTKPFENVEKYPTFVEFILIPLYKIFSYALSMEKDKLKNLLRSNFRVNLSQEALQYDPQPFLKHVLQLIFRQQTGLVDAITRCYQPFELFDNKTAHLSIPGKSTPEGTLWAHVLKTVDYGGAEWSLVRIYSGLLKRGDTVRILDTSQSESRQKRQLHDISKTETSNEDEDEDDETPSCEVEEIGLLGGRYVYPVHEAHKGQIVLIKGISSAYIKSATLYSVKSKEDMKQLKFFKPLDYITEAVFKIVLQPLLPRELPKLLDALNKISKYYPGVIIKVEESGEHVILGNGELYMDCLLYDLRASYAKIEIKISDPLTVFSESCSNESFASIPVSNSISRLGEENLPGLSISVAAEPMDSKMIQDLSRNTLGKGQNCLDIDGIMDNPRKLSKILRTEYGWDSLASRNVWSFYNGNVLINDTLPDEISPELLSKYKEQIIQGFYWAVKEGPLAEEPIAGAQAKLLSISVPSDVNIDVMKSQIIPLMKKACYVGLLTAIPILLEPIYEVDITVHAPLLPIVEELMKKRRGSRIYKTIKVAGTPLLEVRGQVPVIESAGFETDLRLSTNGLGMCQLYFWHKIWRKVPGDVLDKDAFIPKLKPAPINSLSRDFVMKTRRRKGISTGGFMSNDGPTLEKYISAELYAQLRENGLVP
In the case of B3, the binding entry in assay [3] and in assay [2] was “no binding (tested: 15 pmol of each protein)” each time.

B4: Full-length Snu114 fused to LexA DNA binding domain (protein, UniProt P36048 1-1008)
chain: MEGDDLFDEFGNLIGVDPFDSDEEESVLDEQEQYQTNTFEGSGNNNEIESRQLTSLGSKKELGISLEHPYGKEVEVLMETKNTQSPQTPLVEPVTERTKLQEHTIFTQLKKNIPKTRYNRDYMLSMANIPERIINVGVIGPLHSGKTSLMDLLVIDSHKRIPDMSKNVELGWKPLRYLDNLKQEIDRGLSIKLNGSTLLCTDLESKSRMINFLDAPGHVNFMDETAVALAASDLVLIVIDVVEGVTFVVEQLIKQSIKNNVAMCFVINKLDRLILDLKLPPMDAYLKLNHIIANINSFTKGNVFSPIDNNIIFASTKLGFTFTIKEFVSYYYAHSIPSSKIDDFTTRLWGSVYYHKGNFRTKPFENVEKYPTFVEFILIPLYKIFSYALSMEKDKLKNLLRSNFRVNLSQEALQYDPQPFLKHVLQLIFRQQTGLVDAITRCYQPFELFDNKTAHLSIPGKSTPEGTLWAHVLKTVDYGGAEWSLVRIYSGLLKRGDTVRILDTSQSESRQKRQLHDISKTETSNEDEDEDDETPSCEVEEIGLLGGRYVYPVHEAHKGQIVLIKGISSAYIKSATLYSVKSKEDMKQLKFFKPLDYITEAVFKIVLQPLLPRELPKLLDALNKISKYYPGVIIKVEESGEHVILGNGELYMDCLLYDLRASYAKIEIKISDPLTVFSESCSNESFASIPVSNSISRLGEENLPGLSISVAAEPMDSKMIQDLSRNTLGKGQNCLDIDGIMDNPRKLSKILRTEYGWDSLASRNVWSFYNGNVLINDTLPDEISPELLSKYKEQIIQGFYWAVKEGPLAEEPIYGVQYKLLSISVPSDVNIDVMKSQIIPLMKKACYVGLLTAIPILLEPIYEVDITVHAPLLPIVEELMKKRRGSRIYKTIKVAGTPLLEVRGQVPVIESAGFETDLRLSTNGLGMCQLYFWHKIWRKVPGDVLDKDAFIPKLKPAPINSLSRDFVMKTRRRKGISTGGFMSNDGPTLEKYISAELYAQLRENGLVP
Consider B4, for which the binding entry in assay [4] was “binds”.

B5: Snu114 (in yeast whole cell extract) (protein, UniProt P36048 1-1008)
chain: MEGDDLFDEFGNLIGVDPFDSDEEESVLDEQEQYQTNTFEGSGNNNEIESRQLTSLGSKKELGISLEHPYGKEVEVLMETKNTQSPQTPLVEPVTERTKLQEHTIFTQLKKNIPKTRYNRDYMLSMANIPERIINVGVIGPLHSGKTSLMDLLVIDSHKRIPDMSKNVELGWKPLRYLDNLKQEIDRGLSIKLNGSTLLCTDLESKSRMINFLDAPGHVNFMDETAVALAASDLVLIVIDVVEGVTFVVEQLIKQSIKNNVAMCFVINKLDRLILDLKLPPMDAYLKLNHIIANINSFTKGNVFSPIDNNIIFASTKLGFTFTIKEFVSYYYAHSIPSSKIDDFTTRLWGSVYYHKGNFRTKPFENVEKYPTFVEFILIPLYKIFSYALSMEKDKLKNLLRSNFRVNLSQEALQYDPQPFLKHVLQLIFRQQTGLVDAITRCYQPFELFDNKTAHLSIPGKSTPEGTLWAHVLKTVDYGGAEWSLVRIYSGLLKRGDTVRILDTSQSESRQKRQLHDISKTETSNEDEDEDDETPSCEVEEIGLLGGRYVYPVHEAHKGQIVLIKGISSAYIKSATLYSVKSKEDMKQLKFFKPLDYITEAVFKIVLQPLLPRELPKLLDALNKISKYYPGVIIKVEESGEHVILGNGELYMDCLLYDLRASYAKIEIKISDPLTVFSESCSNESFASIPVSNSISRLGEENLPGLSISVAAEPMDSKMIQDLSRNTLGKGQNCLDIDGIMDNPRKLSKILRTEYGWDSLASRNVWSFYNGNVLINDTLPDEISPELLSKYKEQIIQGFYWAVKEGPLAEEPIYGVQYKLLSISVPSDVNIDVMKSQIIPLMKKACYVGLLTAIPILLEPIYEVDITVHAPLLPIVEELMKKRRGSRIYKTIKVAGTPLLEVRGQVPVIESAGFETDLRLSTNGLGMCQLYFWHKIWRKVPGDVLDKDAFIPKLKPAPINSLSRDFVMKTRRRKGISTGGFMSNDGPTLEKYISAELYAQLRENGLVP
Take B5: in assay [1], the binding entry is “binds”.

For the origin of these results see paper PMC6380292.
